The list shows a part of the results. At the low end of the ranking, values are background and their order means little.
biological target: SIX1 homeodomain (reference allele) (UniProt Q15475); experiment: universal protein binding microarray; conditions: Universal all-10-mer PBM (8x60K, AMADID 030236), 300 nM GST-tagged protein, Alexa Fluor 488 anti-GST; buffer, salt, pH and temperature not stated; high values mean tight binding; most listed sequences are background and not binding sites; double strand, one strand shown

| Sequence | binding signal [E-score] |
| --- | --- |
| GCTACGAC | -0.0787 |
| CGGCTACC | 0.134 |
| CCATGGGG | 0.0804 |
| CCAAGGTC | -0.0369 |
| TAGAAAGA | 0.00966 |
| CACCGCGA | 0.131 |
| GCTCTTGA | -0.188 |
| CCACGGCC | -0.15 |
| CTCTAGAG | 0.048 |
| ACAATGAG | 0.0307 |
| GGATGACA | 0.0846 |
| ACTCCTCA | -0.00274 |
| CCTCGGTC | 0.0728 |
| CTCTTCCC | -0.0452 |
| CACTTCTG | -0.0866 |
| GATGTGAA | 0.0599 |
| CCATTGTC | -0.198 |
| GACCGCGA | -0.0926 |
| TCAGGAGA | 0.0363 |
| ATACCCCA | 0.43 |
| CCTATTAC | 0.0325 |
| AGCTAAAC | -0.217 |
| CTGATTGC | -0.0634 |
| ATGTTGCA | -0.132 |
| ACTGCATC | 0.115 |

| Sequence | binding signal [E-score] |
| --- | --- |
| GGAGTTTA | -0.135 |
| CTCCATGA | -0.0718 |
| ACATCGAA | 0.0266 |
| CGGCGCTC | -0.1 |
| GATTAAGA | 0.0867 |
| GGGATTGA | 0.128 |
| GAATAATA | 0.226 |
| CTGGGGGA | 0.0978 |
| ACAGGATG | 0.179 |
| ATATACGA | 0.157 |
| CTATCCCA | 0.257 |
| CACGTAAA | -0.163 |
| AAGTAGCG | -0.101 |
| GACTGATC | 0.272 |
| AGGAGGCG | -0.103 |
| ATCTTGTG | 0.166 |
| ATGTAAAA | -0.313 |
| CGTGATAG | 0.244 |
| ACCAGCTA | 0.00338 |
| TCTGTAAA | -0.184 |
| CACACAAG | -0.154 |
| GAATCACC | -0.118 |
| ACGTCCTA | -0.103 |
| GATTGAGC | 0.0181 |
| CTCGTATA | 0.161 |

| Sequence | binding signal [E-score] |
| --- | --- |
| GTGCGACA | -0.0981 |
| CATTACTA | 0.000975 |
| CTGACATA | -0.151 |
| AGGCGATG | -0.00108 |
| TACCTAAA | -0.00297 |
| ATGGCTGC | -0.229 |
| CATGGACA | -0.158 |
| GACACGCA | 0.0451 |
| GAGCCCGC | -0.0546 |
| GCATACCA | 0.144 |
| CCACAAAC | -0.0226 |
| ATCCAAAG | 0.0528 |
| ACCAAGGG | 0.0408 |
| ATGGACAC | 0.0165 |
| GCACCGAA | -0.227 |
| CTTCGCGA | -0.0983 |
| GATATTCC | 0.376 |
| GTTTGGCA | -0.261 |
| CCTGAAGC | -0.23 |
| GTCGTCGA | -0.222 |
| TACTACTA | 0.195 |
| CCGCGCGA | 0.0377 |
| GCTTGCCA | -0.201 |
| GCAGGTCA | -0.241 |
| GGCGAGTA | 0.011 |

| Sequence | binding signal [E-score] |
| --- | --- |
| AGGATAAT | 0.295 |
| CGGCTAAC | -0.0604 |
| AAAGTCGT | -0.277 |
| ACAAATCC | 0.16 |
| GATGCAGC | -0.151 |
| CCACCGCA | -0.0733 |
| AAAGTTAG | -0.189 |
| CCACTGGA | 0.215 |
| ATGACACG | 0.289 |
| GTTGTTGA | -0.0896 |
| CGTTTACC | 0.068 |
| GACAACAA | -0.299 |
| TAGAACGA | -0.0488 |
| AGCTTTTC | -0.365 |
| TCCCTGAA | 0.065 |
| CACATTTC | 0.033 |
| GATTTACA | -0.113 |
| AGACCGCT | -0.112 |
| CATCCGAG | 0.137 |
| AGTTGAAA | -0.207 |
| AAGTGCCT | -0.32 |
| CATACGCG | 0.149 |
| CTCAAACC | -0.157 |
| CCCACCCA | -0.0219 |
| GTTCAGCA | -0.0857 |

| Sequence | binding signal [E-score] |
| --- | --- |
| TATCGGAA | 0.368 |
| TTACCTAA | 0.00626 |
| ACAATAGT | -0.00197 |
| CACTTTGG | -0.093 |
| AATTCTTG | -0.202 |
| AGCCAGCT | -0.0429 |
| CGTCAGCC | 0.00262 |
| CCCCCGCG | 0.162 |
| TAGATCGA | 0.0916 |
| TATAACGA | 0.155 |
| GAATCTCA | 0.0523 |
| CTCGATGC | -0.0181 |
| AGGGCTGG | -0.133 |
| AGCATGAT | 0.2 |
| CATAGCCA | 0.0457 |
| AAGACAGC | -0.193 |
| AGCCGCGC | 0.0394 |
| CTTACCGA | 0.104 |
| CGGTGTCC | 0.352 |
| GGTCATCA | 0.0463 |
| CAGTATTC | 0.0263 |
| AAGGACGT | -0.157 |
| ATTCTTCA | -0.0427 |
| AGAATAAG | -0.144 |
| AAGTGCGC | -0.264 |

| Sequence | binding signal [E-score] |
| --- | --- |
| GCCTCACA | -0.129 |
| CTCCAGTA | 0.0784 |
| GGTAGCAA | -0.166 |
| CACGTGAA | -0.0276 |
| GAATGAGA | 0.081 |
| ACATACCG | 0.162 |
| AGTTGCCG | -0.252 |
| ACCCAGGC | 0.0595 |
| GTTTTGGA | -0.042 |
| AACGACAT | -0.187 |
| CCATGCTA | 0.0644 |
| ACCCAAAA | 0.00116 |
| CCGCGCGG | -0.0933 |
| ACGATTAG | -0.0185 |
| ACGAACAA | -0.138 |
| CGCAAGTC | -0.149 |
| GAAACTTA | -0.188 |
| ACAGCACA | -0.0757 |
| ATACGGTA | 0.405 |
| AGGCGCGC | -0.145 |
| CCTGTGAC | -0.00424 |
| CCGCGAAG | -0.0634 |
| CAACGAAC | -0.203 |
| TACCATGA | 0.0689 |
| CACATAGG | -0.0739 |

| Sequence | binding signal [E-score] |
| --- | --- |
| CATTGTAA | 0.0513 |
| CTAGGAGA | 0.00177 |
| TGGAAGAA | -0.104 |
| ACATTTCG | -0.301 |
| GCTAAGCC | -0.18 |
| ATTACGAA | -0.0905 |
| ACAGGTCA | -0.248 |
| ATGGATCA | 0.383 |
| CCCAAGTC | -0.167 |
| CAGGTATA | 0.276 |
| GCAGGGCC | -0.16 |
| AAACGCGC | -0.225 |
| TGCGAGAA | 0.0209 |
| CCCACTAC | 0.0503 |
| AACACATA | 0.0344 |
| CTGCTGTC | -0.105 |
| AACGAGGA | 0.107 |
| GTGGCCAC | -0.164 |
| GCCCGGAA | -0.136 |
| GCAAATAC | -0.151 |
| CTTAAAGC | -0.0817 |
| ATGTTTAA | -0.213 |

Reference: article PMC10668032
